In PubChem BioAssay AID1461 (National Center for Advancing Translational Sciences (NCATS), 2008):
The whole screen tested about 220,000 compounds, of which about 2,300 (1%) were called active. The inconclusive results got no clear call from the source; some entries with a clear call stand among them for comparison. The call rests on the fitted dose curve; in most records, active means well fitted inhibition curve with a large enough effect; inconclusive means small, poorly fitted or top-dose-only effect, or effect the other way; inactive means no such curve, though single readings can be large or run the other way. Potencies of inconclusive entries are left out as doubtful fits.

target: Neuropeptide S receptor (Homo sapiens) (UniProt Q6W5P4); assay: qHTS Assay for Antagonists of the Neuropeptide S Receptor: cAMP Signal Transduction; conditions: CHO-NPSR cells, cAMP TR-FRET, antagonist mode; series mostly up to 38.3 µM; further: nearly all actives have a fitted effect of over 50% in size
Potency means the concentration at half of the fitted maximal effect; tags describe the fitted curve by direction and shape.

Chain of UniProt Q6W5P4 (Q6W5P4 whole entry, looked up): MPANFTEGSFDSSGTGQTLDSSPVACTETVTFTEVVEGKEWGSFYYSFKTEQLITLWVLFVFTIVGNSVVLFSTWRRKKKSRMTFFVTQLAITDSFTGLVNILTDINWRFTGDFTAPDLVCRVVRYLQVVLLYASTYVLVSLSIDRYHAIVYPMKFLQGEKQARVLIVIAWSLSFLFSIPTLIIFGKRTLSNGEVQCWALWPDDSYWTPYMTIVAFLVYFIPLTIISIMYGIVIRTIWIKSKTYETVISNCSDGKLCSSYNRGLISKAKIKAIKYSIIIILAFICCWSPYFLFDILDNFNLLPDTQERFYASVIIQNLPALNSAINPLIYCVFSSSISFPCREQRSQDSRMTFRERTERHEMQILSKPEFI

SMILES | Potency
O=C(CCl)NCc1c(Cl)cccc1-n1cccc1 | inactive
CN1CCN(CCCNC(=O)c2cc3c(-c4ccc(Cl)cc4)nn(C)c3s2)CC1 | active: 10 µM
CC1CCCN(S(=O)(=O)c2ccc(S(=O)(=O)N3CCCN(Cc4ccccc4)C3)cc2)C1 (stereo not drawn) | inconclusive [inhibitor, single point]
Cc1cnn(-c2nc(-c3ccccc3)cc(-c3ccccc3)n2)c1 | inconclusive [activator, single point]
Cc1ccc(NC(=O)c2ccc(OC(=S)N3CCOCC3)cc2)cc1 | inactive
CCOC(=O)C(C)Oc1cccc2c(=O)n(CC(=O)NCc3ccco3)ccc12 (stereo not drawn) | inconclusive [activator, partial curve]
CCOC(=O)c1sc(C)c2c1NC1(CCCCCC1)NC2=O | inconclusive [inhibitor, single point]
O=C1CCCN1c1ccc(S(=O)(=O)N2CCCCC2)cc1[N+](=O)[O-] | inactive
COC(=O)C1=C(C)N=C2SC(C#N)=C(N)N2C1c1cc(OC)c(OC)c(OC)c1 (stereo not drawn) | inconclusive [inhibitor, single point]
CN(Cc1ccccc1)S(=O)(=O)c1ccc2[nH]cc(C(=O)NCC3CCCO3)c(=O)c2c1 (stereo not drawn) | inconclusive [inhibitor, partial curve, poor fit]
CC1CCCN(c2c([N+](=O)[O-])c(=O)oc3ccccc23)C1 (stereo not drawn) | inactive
COc1ccc2c(c1)cc(C)c1nnc(SCC(=O)N(C)c3nc(-c4ccccc4)cs3)n12 | inconclusive [inhibitor, single point]
c1ccc(C(c2ccccc2)N2CCN(Cc3nnnn3C3CCCCC3)CC2)cc1 | inconclusive [inhibitor, single point]
CC(=O)OC1CCC2(C)C(COc3ccc4ccc(=O)oc4c3)C(C)(O)CCC2C1(C)C (stereo not drawn) | inconclusive [inhibitor, partial curve, poor fit]
N#Cc1nc(-c2cccs2)oc1N1CCN(Cc2ccccc2)CC1 | inconclusive [inhibitor, partial curve]
Oc1ccccc1-c1nc(NCc2ccco2)c2ccccc2n1 | inactive
COc1ccc([C@@]2(O)c3c(ccc(CC=C(C)C)c3O)NC(=O)[C@@H]2OC)cc1 | inconclusive [inhibitor, single point]
O=[N+]([O-])c1cccc(-c2nc3ccccc3s/c2=N/O)c1 | inconclusive [activator, single point]
N#CC(C#N)=C1C=CC=CN1/C(=C\c1ccco1)C(=O)c1ccc(Cl)cc1 | inconclusive [inhibitor, single point]
Cc1ccc(/C(O)=C2/C(=O)C(=O)N(CCN3CCOCC3)C2c2ccccn2)cc1 (stereo not drawn) | inconclusive [inhibitor, partial curve]
COc1cc2c(cc1OC)C(c1ccc(-c3ccc(Cl)c(Cl)c3)o1)=NCC2 | inconclusive [inhibitor, single point]
O=C(COC(=O)C1(c2ccccc2F)CCCC1)Nc1ncc(C(F)(F)F)cc1Cl | inconclusive [inhibitor, single point]

SMILES | Potency
O=C(Nc1nnc(-c2ccc3c(c2)CCCC3)o1)C1COc2ccccc2O1 (stereo not drawn) | inactive
Cc1ccc(OCC(O)Cn2c3ccccc3c3ccccc32)cc1 (stereo not drawn) | inconclusive [inhibitor, single point]
Cc1cc(NC(=O)c2ccccc2F)nc2c1c(=O)oc1ccccc12 | inconclusive [inhibitor, single point]
Cc1cc(C#N)c(C)n1-c1cc(S(=O)(=O)N2CCOCC2)ccc1N1CCCC1 | inconclusive [inhibitor, single point]
COc1cc([N+](=O)[O-])ccc1NC(=O)CCCOc1cccc(C)c1C | inactive
O=C(O)c1ccc(-n2c(=O)c3ccccc3c3ccccc3c2=O)cc1 | inconclusive [activator, single point]
CC(C)c1ccc(CC(C)C2C3=C(CCCC3=O)OC3=C2C(=O)CCC3)cc1 (stereo not drawn) | inconclusive [inhibitor, single point]
Oc1ccccc1Nc1nc(NCc2ccccc2)c2ccccc2n1 | inconclusive [activator, single point]
CC(C)OC(=O)C(C)Nc1n[nH]c(=S)[nH]c1=O (stereo not drawn) | inactive
Cc1ccc(NC(=S)NC(=O)c2ccccc2)cc1NC(=S)NC(=O)c1ccccc1 | inconclusive [activator, partial curve]
CC(C)(C)c1ccc(OCCNC(=S)Nc2ccccc2)cc1 | inconclusive [inhibitor, single point]
Fc1ccc(Cn2ccc(-c3cnc(-c4ccccc4)s3)n2)cc1 | inconclusive [inhibitor, single point]
Cc1cc(N2C(=O)C(=O)/C(=C(/O)c3ccc(Cl)cc3)C2c2cccc(Br)c2)no1 (stereo not drawn) | active: 12.6 µM
O=C(Oc1c(CN2CCOCC2)cc(Cl)c2cccnc12)c1ccccc1Cl | active: 7.94 µM
COc1ccc(C(=O)COC(=O)c2ccc(N(C)C)cc2)cc1 | inactive
Cc1nc2ncnn2c(N2CCN(c3cccc(C(F)(F)F)c3)CC2)c1C | inconclusive [inhibitor, single point]
COc1ccc(NC(=S)Nc2cccc(C)n2)cc1 | inconclusive [activator, partial curve]
CC(=O)N1CCN(CCN=CC2=C(O)CC(c3ccco3)CC2=O)CC1 (stereo not drawn) | inconclusive [inhibitor, single point]
CC(NC(=O)c1cccc(Cn2cc([N+](=O)[O-])cn2)c1)c1ccc(C(C)(C)C)cc1 (stereo not drawn) | inconclusive [inhibitor, single point]
Cc1ccc(S(=O)(=O)NCC(=O)OC(C)C(=O)Nc2ncc(Cl)cc2Cl)cc1 (stereo not drawn) | inactive
CCCCN(C)c1nc(-c2ccco2)c2c(c1C#N)CC(C)(C)OC2 | inconclusive [inhibitor, partial curve]
